# Experimental data as given in the supplement of paper PMC4967469.
# IC50 is the fitted dose that halves viability relative to control wells, and lower means more sensitive; fits outside the tested doses are given as limits. For AUC the same curve is integrated over the 256-fold range of doses and scaled to a fraction: 1 means no effect, lower means more sensitive. An inferred top dose was calculated from the reported fits.
# Compound: Cc1ccc(-c2c(C(=O)CF)n(CCCO)c3ncnc(N)c23)cc1 [FMK]
# Assay: Viability of human cancer cell lines after 72 h of drug (GDSC screen)
# Settings: top dose inferred
# Procedure: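 Human cancer cell lines in 384-well plates, medium with 10% serum, drug for 72 h over a 256-fold dose range (nine 2-fold or five 4-fold steps up to the top dose). Adherent lines were fixed and stained with the nucleic acid dye Syto60, suspension lines read with resazurin; signal relative to control wells, capped at 0 and 100%. One two-parameter sigmoid per drug and line, fitted in a mixed model over all curves with the slope shared within a line.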
Cell Line,AUC,IC50
"HuCCT1 (biliary tract, adherent, top dose 20 µM)",0.973,> 20 µM
"HuH-7 (liver, adherent, top dose 20 µM)",0.986,> 20 µM
"HuO9 (osteosarcoma, adherent, top dose 20 µM)",0.963,> 20 µM
"HuO-3N1 (osteosarcoma, adherent, top dose 20 µM)",0.974,> 20 µM
"HuP-T3 (pancreas, adherent, top dose 20 µM)",0.939,> 20 µM
"HuP-T4 (pancreas, adherent, top dose 20 µM)",0.981,> 20 µM
"IA-LM (large cell lung carcinoma, adherent, top dose 20 µM)",0.985,> 20 µM
"IGR-1 (melanoma, adherent, top dose 20 µM)",0.979,> 20 µM
"IGR-37 (melanoma, adherent, top dose 20 µM)",0.987,> 20 µM
"IHH-4 (thyroid, semi-adherent, top dose 20 µM)",0.993,> 20 µM
"IM-95 (stomach, adherent, top dose 20 µM)",0.958,> 20 µM
"IPC-298 (melanoma, adherent, top dose 20 µM)",0.982,> 20 µM
"IST-MEL1 (melanoma, adherent, top dose 20 µM)",0.948,> 20 µM
"IST-SL1 (small cell lung carcinoma, semi-adherent, top dose 20 µM)",0.971,> 20 µM
"IST-SL2 (small cell lung carcinoma, suspension, top dose 20 µM)",0.984,> 20 µM
"J82 (bladder, adherent, top dose 20 µM)",0.979,> 20 µM
"JEG-3 (urogenital system, adherent, top dose 20 µM)",0.991,> 20 µM
"JHH-1 (liver, adherent, top dose 10.24 µM)",0.95,> 10.2 µM
"JHH-2 (liver, adherent, top dose 10.24 µM)",0.985,> 10.2 µM
"JHH-4 (liver, adherent, top dose 20 µM)",0.913,> 20 µM
"JHH-6 (liver, adherent, top dose 20 µM)",0.987,> 20 µM

Cell Line,AUC,IC50
"JHH-7 (liver, adherent, top dose 10.24 µM)",0.989,> 10.2 µM
"JHU-011 (head and neck, adherent, top dose 20 µM)",0.952,> 20 µM
"JHU-022 (head and neck, adherent, top dose 20 µM)",0.948,> 20 µM
"JIMT-1 (breast, adherent, top dose 20 µM)",0.984,> 20 µM
"JJN-3 (haematopoietic neoplasm, suspension, top dose 20 µM)",0.977,> 20 µM
"JSC-1 (B-cell lymphoma, suspension, top dose 20 µM)",0.937,> 20 µM
"JURL-MK1 (chronic myeloid leukaemia, suspension, top dose 20 µM)",0.965,> 20 µM
"JVM-2 (lymphoid neoplasm, suspension, top dose 20 µM)",0.964,> 20 µM
"JVM-3 (lymphoid neoplasm, suspension, top dose 20 µM)",0.987,> 20 µM
"JiyoyeP-2003 (Burkitt lymphoma, suspension, top dose 20 µM)",0.991,> 20 µM
"K2 (melanoma, adherent, top dose 20 µM)",0.976,> 20 µM
"K5 (thyroid, adherent, top dose 20 µM)",0.988,> 20 µM
"K-562 (chronic myeloid leukaemia, suspension, top dose 20 µM)",0.965,> 20 µM
"KALS-1 (glioma, adherent, top dose 20 µM)",0.962,> 20 µM
"KARPAS-45 (lymphoblastic leukaemia, suspension, top dose 20 µM)",0.826,9.52 µM
"KARPAS-299 (anaplastic large cell lymphoma, suspension, top dose 20 µM)",0.992,> 20 µM
"KARPAS-422 (B-cell lymphoma, suspension, top dose 20 µM)",0.985,> 20 µM
"KARPAS-620 (haematopoietic neoplasm, suspension, top dose 20 µM)",0.952,> 20 µM
"KASUMI-1 (acute myeloid leukaemia, suspension, top dose 20 µM)",0.954,> 20 µM
"KCL-22 (chronic myeloid leukaemia, suspension, top dose 20 µM)",0.97,> 20 µM
"KE-37 (lymphoblastic leukaemia, suspension, top dose 20 µM)",0.895,14.2 µM

Cell Line,AUC,IC50
"KELLY (neuroblastoma, adherent, top dose 20 µM)",0.986,> 20 µM
"KG-1 (acute myeloid leukaemia, suspension, top dose 20 µM)",0.972,> 20 µM
"KGN (ovary, adherent, top dose 20 µM)",0.925,> 20 µM
"KINGS-1 (glioma, adherent, top dose 20 µM)",0.969,> 20 µM
"KLE (endometrium, adherent, top dose 20 µM)",0.966,> 20 µM
"KM12 (large intestine, adherent, top dose 20 µM)",0.982,> 20 µM
"KM-H2 (Hodgkin lymphoma, suspension, top dose 20 µM)",0.989,> 20 µM
"KMH-2 (thyroid, adherent, top dose 10.24 µM)",0.99,> 10.2 µM
"KMOE-2 (acute myeloid leukaemia, suspension, top dose 20 µM)",0.953,> 20 µM
"KMRC-1 (kidney, adherent, top dose 20 µM)",0.986,> 20 µM
"KMRC-20 (kidney, adherent, top dose 20 µM)",0.989,> 20 µM
"KMS-12-BM (myeloma, suspension, top dose 20 µM)",0.972,> 20 µM
"KNS-42 (glioma, adherent, top dose 20 µM)",0.984,> 20 µM
"KNS-81-FD (glioma, adherent, top dose 20 µM)",0.976,> 20 µM
"KON (head and neck, adherent, top dose 20 µM)",0.984,> 20 µM
"KOPN-8 (B-cell leukaemia, suspension, top dose 20 µM)",0.958,> 20 µM
"KP-1N (pancreas, adherent, top dose 10.24 µM)",0.976,> 10.2 µM
"KP-2 (pancreas, adherent, top dose 20 µM)",0.985,> 20 µM
"KP-3 (pancreas, adherent, top dose 20 µM)",0.944,> 20 µM
"KP-4 (pancreas, adherent, top dose 20 µM)",0.893,> 20 µM
"KS-1 (glioma, adherent, top dose 20 µM)",0.938,> 20 µM

Cell Line,AUC,IC50
"KU812 (chronic myeloid leukaemia, suspension, top dose 20 µM)",0.97,> 20 µM
"KU-19-19 (bladder, adherent, top dose 20 µM)",0.987,> 20 µM
"KURAMOCHI (ovary, adherent, top dose 20 µM)",0.976,> 20 µM
"KY821 (leukaemia, suspension, top dose 20 µM)",0.982,> 20 µM
"KYSE-50 (oesophagus, adherent, top dose 20 µM)",0.99,> 20 µM
"KYSE-70 (oesophagus, adherent, top dose 20 µM)",0.984,> 20 µM
"KYSE-150 (oesophagus, adherent, top dose 20 µM)",0.971,> 20 µM
"KYSE-180 (oesophagus, adherent, top dose 20 µM)",0.974,> 20 µM
"KYSE-220 (oesophagus, adherent, top dose 20 µM)",0.928,> 20 µM
"KYSE-270 (oesophagus, adherent, top dose 20 µM)",0.981,> 20 µM
"KYSE-410 (oesophagus, adherent, top dose 20 µM)",0.976,> 20 µM
"KYSE-450 (oesophagus, adherent, top dose 20 µM)",0.889,> 20 µM
"KYSE-510 (oesophagus, adherent, top dose 20 µM)",0.991,> 20 µM
"KYSE-520 (oesophagus, adherent, top dose 20 µM)",0.957,> 20 µM
"L-363 (myeloma, suspension, top dose 20 µM)",0.977,> 20 µM
"L-428 (Hodgkin lymphoma, suspension, top dose 20 µM)",0.988,> 20 µM
"L-540 (Hodgkin lymphoma, suspension, top dose 20 µM)",0.977,> 20 µM
"L-1236 (Hodgkin lymphoma, suspension, top dose 20 µM)",0.991,> 20 µM
"LAMA-84 (chronic myeloid leukaemia, suspension, top dose 20 µM)",0.964,> 20 µM
